Reference: the BET-seq Pho4 binding data (Le et al. 2018)
The list shows a part of the results. Values were computed here from the reads of four pooled replicates and scatter widely.

Each sequence was assayed against T1, Pho4 (S. cerevisiae) (UniProt P07270) (assay: relative binding free energy (BET-seq); higher = weaker binding). Settings: reference: library average.
T1 sequence: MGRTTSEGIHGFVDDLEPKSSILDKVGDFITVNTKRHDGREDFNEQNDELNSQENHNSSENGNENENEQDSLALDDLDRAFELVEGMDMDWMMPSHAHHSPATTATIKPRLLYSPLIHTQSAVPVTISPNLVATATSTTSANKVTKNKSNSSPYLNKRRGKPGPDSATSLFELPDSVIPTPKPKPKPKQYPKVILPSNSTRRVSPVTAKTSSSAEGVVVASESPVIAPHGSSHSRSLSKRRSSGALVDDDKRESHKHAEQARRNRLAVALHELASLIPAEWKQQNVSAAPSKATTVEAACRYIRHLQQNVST

Sequence | relative binding free energy
TAATGCACGTGTAATA | 0.06 kcal/mol
GGGATCACGTGACGGG | 0.24 kcal/mol
GATTACACGTGTTCGG | 0.12 kcal/mol
TAAAGCACGTGCGGTG | -0.07 kcal/mol
TGCGTCACGTGGGTCT | -0.06 kcal/mol
GGCGTCACGTGAGGTC | 0.36 kcal/mol
GGGCGCACGTGGTTGT | -0.18 kcal/mol
CAGGTCACGTGGTTGA | -0.02 kcal/mol
TTGCGCACGTGGGTAC | -0.16 kcal/mol
TAATGCACGTGGGTTT | -0.18 kcal/mol
ATGAACACGTGGCGGG | -0.06 kcal/mol
GTCTGCACGTGGGCTT | -0.16 kcal/mol
GTAAACACGTGCTGGT | 0 kcal/mol
GATGTCACGTGGCTTA | 0.18 kcal/mol
GGATACACGTGAAGTG | 0.34 kcal/mol
TGCAGCACGTGATTGT | -0.13 kcal/mol
ATTGTCACGTGGGGTC | -0.02 kcal/mol
TTTTCCACGTGTGATA | 0.16 kcal/mol
CTGCTCACGTGATGGG | 0.22 kcal/mol
GGGGTCACGTGCGCTG | -0.1 kcal/mol
TTAATCACGTGGGGAT | 0.2 kcal/mol
GGTTACACGTGCTTTT | 0.04 kcal/mol
GCGGGCACGTGATGGA | -0.11 kcal/mol
TTGATCACGTGTGTTA | 0.2 kcal/mol
GGCGACACGTGGTTTG | -0.05 kcal/mol
GGGAACACGTGGGGTG | -0.04 kcal/mol

Sequence | relative binding free energy
TATGTCACGTGGCTGA | 0.05 kcal/mol
TTCGACACGTGCTTGG | 0.13 kcal/mol
TTTTGCACGTGTCTTC | 0.05 kcal/mol
AGTTACACGTGCGGGT | 0.19 kcal/mol
AGGAGCACGTGTTTTT | -0.1 kcal/mol
TGCTTCACGTGGCTGT | 0.17 kcal/mol
GTTATCACGTGTAAGA | 0.23 kcal/mol
TTGCACACGTGGGTTC | 0.02 kcal/mol
AGAGTCACGTGTGACG | 0.22 kcal/mol
AGTAACACGTGTAGTC | 0.19 kcal/mol
GGGACCACGTGAAGGG | 0.23 kcal/mol
ATCGTCACGTGCGGGT | 0.06 kcal/mol
TTGCGCACGTGCTGGT | -0.27 kcal/mol
GGCCGCACGTGTGTGA | 0.03 kcal/mol
TTATGCACGTGAAAGA | 0.42 kcal/mol
AGCGTCACGTGGGAGG | -0.08 kcal/mol
TTTCTCACGTGTTGCG | 0.27 kcal/mol
AGGTACACGTGCGGTG | -0.02 kcal/mol
TACTTCACGTGCGGGG | 0.16 kcal/mol
AGGGGCACGTGCGGTC | -0.27 kcal/mol
TTGTTCACGTGGTCAT | 0 kcal/mol
TTAGTCACGTGGATTT | 0.07 kcal/mol
AATATCACGTGGGGTT | -0.02 kcal/mol
ATTAACACGTGTGCGG | -0.02 kcal/mol
GGCGGCACGTGGGCCG | -0.24 kcal/mol
ATTTGCACGTGTTTGT | 0.11 kcal/mol

Sequence | relative binding free energy
AAATGCACGTGGTTAT | 0.09 kcal/mol
GGTGGCACGTGAAATG | 0.27 kcal/mol
TGTTGCACGTGTGACA | 0.01 kcal/mol
GAGGGCACGTGGTATC | -0.12 kcal/mol
GTATTCACGTGTGTGC | 0.27 kcal/mol
GGTGGCACGTGCGTAT | -0.15 kcal/mol
GTAAACACGTGGCGTG | 0.01 kcal/mol
GGTCTCACGTGCTGGT | 0.17 kcal/mol
TATTACACGTGGAGGG | 0.07 kcal/mol
TGATGCACGTGATTTA | 0.09 kcal/mol
TCAGGCACGTGGAAGT | 0.05 kcal/mol
GGTGTCACGTGGTTAC | 0 kcal/mol
TTTGGCACGTGGAGGA | -0.04 kcal/mol
GGATCCACGTGTGGGG | 0.11 kcal/mol
CGTGCCACGTGGTGTA | -0.21 kcal/mol
ATGGCCACGTGAGGCT | 0.15 kcal/mol
CGTGGCACGTGGGTCG | -0.32 kcal/mol
TCATGCACGTGGGATG | -0.11 kcal/mol
TGGGTCACGTGAGTCA | 0.33 kcal/mol
GGGTACACGTGTATGG | 0.18 kcal/mol
CAAGGCACGTGTGAGT | -0.05 kcal/mol
CTGAGCACGTGTGAAG | 0.1 kcal/mol
TTTTACACGTGTCGCG | 0.07 kcal/mol
GATGGCACGTGAGGTG | 0.2 kcal/mol
TTTGTCACGTGTCGGT | 0.09 kcal/mol
TTGTCCACGTGTAGGT | -0.07 kcal/mol

Sequence | relative binding free energy
ATATACACGTGCAGTG | 0.06 kcal/mol
GGAGACACGTGGTATG | -0.14 kcal/mol
ATTTGCACGTGGGTAC | -0.08 kcal/mol
ATTAGCACGTGTGACG | 0.06 kcal/mol
AGGAGCACGTGATTGT | 0.12 kcal/mol
ATTTTCACGTGTAGCG | 0.22 kcal/mol
TGTGACACGTGTTCAA | -0.02 kcal/mol
GGTACCACGTGGCGGG | -0.16 kcal/mol
AGGGACACGTGGGTCG | -0.09 kcal/mol
GTATTCACGTGGTAAT | 0.29 kcal/mol
TTGATCACGTGATAGA | 0.28 kcal/mol
TTGCGCACGTGATAGG | 0.03 kcal/mol
TTGGACACGTGGGTGT | -0.1 kcal/mol
ATTATCACGTGCTGCG | 0.11 kcal/mol
TTTTTCACGTGGGGAA | 0.2 kcal/mol
GGGGGCACGTGGAATC | 0.05 kcal/mol
TTAAGCACGTGGGACG | -0.18 kcal/mol
TAATACACGTGTTGTA | -0.18 kcal/mol
CTGTCCACGTGTTGGT | 0.01 kcal/mol
AGGCGCACGTGAGCGG | -0.05 kcal/mol
ACATGCACGTGTTGGT | -0.12 kcal/mol
CGGATCACGTGGGGGG | -0.04 kcal/mol
GGAAGCACGTGGATTG | -0.04 kcal/mol
TTTACCACGTGTGGGG | 0.12 kcal/mol
TTCCTCACGTGGGGGG | -0.05 kcal/mol
CGTAGCACGTGTAGTT | -0.02 kcal/mol

Sequence | relative binding free energy
GATTGCACGTGAGATT | 0.19 kcal/mol
TAGCTCACGTGTTTTT | 0.12 kcal/mol
AGGGGCACGTGGCGCA | -0.29 kcal/mol
AAGTTCACGTGTAAGA | 0.39 kcal/mol
TAATACACGTGCTGTT | -0.08 kcal/mol
TATAACACGTGCTTAT | 0.06 kcal/mol
TAGGCCACGTGGGGGG | -0.17 kcal/mol
CTATACACGTGTTAGG | 0.12 kcal/mol
CGAGGCACGTGTTGGT | -0.09 kcal/mol
GTTTGCACGTGATCGG | 0.09 kcal/mol
AAAGTCACGTGGTATG | -0.06 kcal/mol
ATTAGCACGTGAGTGT | 0.15 kcal/mol
GAAAACACGTGTGGTG | -0.08 kcal/mol
TTTTGCACGTGCGGCG | 0.06 kcal/mol
TCGTTCACGTGTAATG | 0.3 kcal/mol
TTTAACACGTGGGATA | -0.04 kcal/mol
TAGTGCACGTGGTCAG | -0.22 kcal/mol
GTCGCCACGTGATGTT | 0.27 kcal/mol
ATGTTCACGTGCTTTA | 0.26 kcal/mol
GTTTACACGTGGCTCG | -0.01 kcal/mol
GCAGTCACGTGTGTCG | 0.24 kcal/mol
GTGGTCACGTGCTCTT | 0.13 kcal/mol
GAGAGCACGTGAATTT | 0.34 kcal/mol
AAGTTCACGTGACGGG | 0.46 kcal/mol
TATATCACGTGGTTAT | 0.01 kcal/mol
GAGTGCACGTGTGAGA | 0.26 kcal/mol

Sequence | relative binding free energy
AACTTCACGTGTAGTG | 0.22 kcal/mol
TGCAGCACGTGAATGG | 0.13 kcal/mol
GGACGCACGTGTATGG | 0.02 kcal/mol
AGATTCACGTGCGAGG | 0.22 kcal/mol
CTGTGCACGTGTGTGG | 0.04 kcal/mol
TTTGGCACGTGAGTAC | 0.02 kcal/mol
GTGTTCACGTGCACGG | 0.21 kcal/mol
ACTTGCACGTGATAGG | 0.13 kcal/mol
CGTCTCACGTGTTGAG | 0.31 kcal/mol
CTATACACGTGTGTGT | 0.14 kcal/mol
TATTTCACGTGCGGAT | 0.21 kcal/mol
TCATGCACGTGAGGTG | 0.03 kcal/mol
AATGGCACGTGGGGGA | -0.27 kcal/mol
CTGGTCACGTGATGTA | 0.21 kcal/mol
GATTGCACGTGTTTAC | 0.13 kcal/mol
CTTTTCACGTGGGTTG | 0.25 kcal/mol
GAAGGCACGTGAAAGT | 0.14 kcal/mol
CGGTGCACGTGTCTGG | 0.01 kcal/mol
GTTAGCACGTGACTTG | 0 kcal/mol
ATAGTCACGTGAGTAA | 0.24 kcal/mol
TTCGTCACGTGAGATT | 0.43 kcal/mol
TATTCCACGTGTATTA | 0.07 kcal/mol
GGGGGCACGTGAGGAG | 0.1 kcal/mol
CAGGTCACGTGGGTGG | 0.02 kcal/mol
ACATACACGTGTTGTT | 0.03 kcal/mol
GAGGTCACGTGTTGCA | 0.3 kcal/mol

Sequence | relative binding free energy
TTGCTCACGTGATTGT | 0.38 kcal/mol
GGTGGCACGTGGACGA | -0.07 kcal/mol
GGGTACACGTGGCCGG | -0.01 kcal/mol
TTGGCCACGTGCGGGT | -0.19 kcal/mol
TCATGCACGTGGGCTG | -0.09 kcal/mol
TGTAGCACGTGAGCTT | 0.01 kcal/mol
CGTGGCACGTGTTCTT | 0.03 kcal/mol
AAGTTCACGTGGGTTA | 0.18 kcal/mol
TAGGACACGTGGGGCT | -0.12 kcal/mol
TATGGCACGTGGCGAG | -0.19 kcal/mol
AGTACCACGTGGGATG | -0.22 kcal/mol
ATGCTCACGTGTTGGC | 0.36 kcal/mol
GATAGCACGTGTATAT | 0.11 kcal/mol
GGTCACACGTGTCGGT | 0.22 kcal/mol
ATTAGCACGTGTTAGT | -0.05 kcal/mol
TTTTACACGTGGAGTC | 0.13 kcal/mol
TCGTTCACGTGTACGG | 0.27 kcal/mol
TTGTACACGTGAGGCG | 0.26 kcal/mol
GTGGACACGTGTAGTA | -0.04 kcal/mol
TACGGCACGTGTGTAA | -0.04 kcal/mol
TTTATCACGTGTCGGA | 0.2 kcal/mol
ACATTCACGTGGGGTG | 0.08 kcal/mol
GTGGACACGTGGTAAA | 0.11 kcal/mol
GGAGTCACGTGGTTTG | 0.19 kcal/mol
GTAGGCACGTGATCTG | -0.08 kcal/mol
AAGTGCACGTGTTATT | 0.04 kcal/mol

Sequence | relative binding free energy
TGTTCCACGTGAGAGT | 0.31 kcal/mol
GTGCTCACGTGGAGGG | 0.18 kcal/mol
TGATCCACGTGAGGAT | 0.49 kcal/mol
TGAGCCACGTGGGGAT | -0.14 kcal/mol
GCCTGCACGTGTGGTT | 0.1 kcal/mol
TTTAGCACGTGGCGTA | -0.05 kcal/mol
ATGGGCACGTGTTTTC | 0.05 kcal/mol
ATGGGCACGTGTGTAG | -0.09 kcal/mol
TTTGGCACGTGGCTTT | -0.19 kcal/mol
CGGTTCACGTGTTTTC | 0.3 kcal/mol
TTTCGCACGTGCGTGT | 0.01 kcal/mol
AAGGTCACGTGTCGTA | 0.12 kcal/mol
AGAGGCACGTGGGGCC | -0.31 kcal/mol
GTTTGCACGTGGCGTA | -0.06 kcal/mol
GTTCGCACGTGATTAG | 0.19 kcal/mol
CTTGTCACGTGCAGTT | 0.11 kcal/mol
TGGCTCACGTGGATGC | 0.34 kcal/mol
TGTTCCACGTGAGTTT | 0.32 kcal/mol
ATTTACACGTGTCGTT | -0.01 kcal/mol
ATACTCACGTGGGGTG | 0 kcal/mol
GAAGTCACGTGTTGAG | 0.16 kcal/mol
ACGGGCACGTGTTGAT | -0.11 kcal/mol
CATAGCACGTGAGTGT | 0.31 kcal/mol
TTTGACACGTGAAAGT | 0.21 kcal/mol
AATCGCACGTGTGGGT | -0.05 kcal/mol
CTGGGCACGTGTTTTG | -0.08 kcal/mol

Sequence | relative binding free energy
GTATTCACGTGCAGGT | 0.02 kcal/mol
GTGGGCACGTGAACTG | 0.28 kcal/mol
TGCTTCACGTGGAATA | 0.32 kcal/mol
CGGTGCACGTGGTTCA | -0.13 kcal/mol
GGTAGCACGTGTCTGT | -0.11 kcal/mol
TGGATCACGTGGGGCA | 0.06 kcal/mol
TGATGCACGTGGTTCT | -0.08 kcal/mol
ATAATCACGTGCAGGG | 0.18 kcal/mol
GAACACACGTGTGGGG | 0.18 kcal/mol
AATGGCACGTGATTGT | -0.1 kcal/mol
CTCGTCACGTGGTGTT | -0.1 kcal/mol
TTGTTCACGTGAGAAT | 0.42 kcal/mol
AAGGCCACGTGTGGAG | -0.04 kcal/mol
TTTCTCACGTGTTTTA | 0.27 kcal/mol
TCGGTCACGTGTTGTG | 0.21 kcal/mol
GCGAGCACGTGTGCGG | -0.15 kcal/mol
GTATTCACGTGTTCAT | 0.27 kcal/mol
GGAGGCACGTGGGCCT | -0.28 kcal/mol
AGGCGCACGTGGGGCA | -0.35 kcal/mol
GATTCCACGTGGTTGT | 0.22 kcal/mol
AAGGCCACGTGTGTGA | -0.12 kcal/mol
TAAAGCACGTGGGGTA | -0.23 kcal/mol
